We go through 18 compounds from the supplement of paper PMC10037445.

The full ranking holds about 2,900 compounds; the median of “NF-kB SEAP reporter activity, fold change vs agonist alone” is about 0.99, and the highest 2% start at about 2.6. This is one part of the list.

Test [1] relates to RAW-Dual. Description: NF-kB SEAP reporter activity, fold change vs agonist alone; higher = enhanced NF-kB activity. To be noted: library stock concentration (final ~1000-fold dilution): 10 mM. The method in brief: (§1)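 Library stock was pin-tooled at 50 nL into 384-well plates of RAW-Dual macrophages (50,000 cells/well, DMEM), followed 1 h later by a PRR agonist, and the cells were kept at 37 °C, 5% CO2. Supernatant collected after 20 hours was read for IRF by QuantiLuc luminescence and for NF-κB by QuantiBlue absorbance at 620 nm. Reporter activity is fold change over agonist-alone wells, and a well counted as cytotoxic when its IncuCyte confluency was below 70% of agonist controls in both mask sets.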

The test system of test [2] is RAW-Dual. Description: NF-kB SEAP reporter activity, fold change vs agonist alone; cytotoxicity flag (confluency mask): not cytotoxic; higher = enhanced NF-kB activity. An outline of the steps: as §1
Test [3] has as its system RAW-Dual. Description: NF-kB SEAP reporter activity, fold change vs agonist alone; cytotoxicity flag (confluency mask): cytotoxic (confluency <70% of control); higher = enhanced NF-kB activity. The method in brief: as §1
The mark [4] stands for this setting: cytotoxicity flag (confluency mask): not cytotoxic, agonist: Imiquimod (TLR7) […].
[5] abbreviates: cytotoxicity flag (confluency mask): not cytotoxic, agonist: MPLA (TLR4) […].
Setting [6] is: agonist: ODN 1826 (TLR9) 0.5 ug/mL.
Where [7] appears, read: agonist: Pam2CSK4 (TLR2/6) 0.1 ug/mL.
The mark [8] stands for this setting: agonist: Pam3CSK4 (TLR2/1) 0.1 ug/mL.

With `CNC(=O)c1ccc(-c2cnc3cnc(-c4ccccc4)cn23)cc1`, the “NF-kB SEAP reporter activity” value was 1.1 with RAW-Dual [1] (setting [4]) and 1.37 with RAW-Dual [1] (setting [5]).
Regarding `COc1ccc(CCNCc2ccc(OCc3ccc(Cl)nc3)c(OC)c2)cc1OC.Cl` (library stock concentration (final ~1000-fold dilution): 10 mM), the “NF-kB SEAP reporter activity” value in the test on RAW-Dual [2] (agonist: LPS (TLR4) 0.1 ug/mL) is 0.786; in the test with RAW-Dual [2] (setting [6]), 0.179; in the test on RAW-Dual [2] (setting [7]), 0.84; in the test with RAW-Dual [2] (setting [8]), 0.989.
As to `COc1ccc(CCNCc2ccc(OCc3ccc(Cl)nc3)c(OC)c2)cc1OC.Cl`, the “NF-kB SEAP reporter activity” value amounted to 0.962 in the test on RAW-Dual [1] (setting [4]) and 1.15 in the test on RAW-Dual [1] (setting [5]).
`CC12CCC(=O)C=C1C=CC1C2CCC2(C)C1CCC21CCC(=O)O1` (stereo unspecified): the “NF-kB SEAP reporter activity” value with RAW-Dual [1] (setting [5]) is 1.05.
Regarding `CC12CCC(=O)C=C1C=CC1C2CCC2(C)C1CCC21CCC(=O)O1` (stereo unspecified) (library stock concentration (final ~1000-fold dilution): 10 mM), the “NF-kB SEAP reporter activity” value was found to be 0.949 in the test with RAW-Dual [2] (agonist: LPS (TLR4) 0.1 ug/mL), 1.05 in the test with RAW-Dual [2] (setting [6]), 0.849 in the test on RAW-Dual [2] (setting [7]) and 0.874 with RAW-Dual [2] (setting [8]).
With `O=C(O)CCCCC(CCSCc1ccccc1)SCc1ccccc1` (stereo unspecified) (library stock concentration (final ~1000-fold dilution): 10 mM), the “NF-kB SEAP reporter activity” value in the test on RAW-Dual [2] (agonist: LPS (TLR4) 0.1 ug/mL) came to 1.31; in the test with RAW-Dual [2] (setting [6]), 1.1; with RAW-Dual [2] (setting [7]), 1.12; with RAW-Dual [2] (setting [8]), 1.31.
For the compound `O=C(O)CCCCC(CCSCc1ccccc1)SCc1ccccc1` (stereo unspecified), the results for the “NF-kB SEAP reporter activity” value in the test on RAW-Dual [1] (setting [4]) and in the test on RAW-Dual [1] (setting [5]) were 1.29 and 1.13, respectively.
Regarding `CC(C)N(CCCNC(=O)Nc1ccc(C(C)(C)C)cc1)CC1OC(n2ccc3c(N)ncnc32)C(O)C1O` (stereo unspecified) (library stock concentration (final ~1000-fold dilution): 10 mM), the “NF-kB SEAP reporter activity” value in the test on RAW-Dual [2] (agonist: LPS (TLR4) 0.1 ug/mL) turned out to be 0.953; in the test on RAW-Dual [2] (setting [6]) it was 1.05; in the test on RAW-Dual [2] (setting [7]) it was 0.991; with RAW-Dual [2] (setting [8]) it was 1.14.
`CC(C)N(CCCNC(=O)Nc1ccc(C(C)(C)C)cc1)CC1OC(n2ccc3c(N)ncnc32)C(O)C1O` (stereo unspecified): the results for the “NF-kB SEAP reporter activity” value in the test on RAW-Dual [1] (setting [4]) and in the test with RAW-Dual [1] (setting [5]) were 1.02 and 0.984, respectively.
Turning to `C=C(Cc1ccccc1Cl)C(=O)OCC` (library stock concentration (final ~1000-fold dilution): 10 mM), the “NF-kB SEAP reporter activity” value in the test with RAW-Dual [3] (agonist: LPS (TLR4) 0.1 ug/mL) was found to be 0.636; in the test on RAW-Dual [3] (setting [6]), 0.588; in the test with RAW-Dual [3] (setting [7]), 0.682; in the test on RAW-Dual [3] (setting [8]), 0.806.
Consider `C=C(Cc1ccccc1Cl)C(=O)OCC`, for which the “NF-kB SEAP reporter activity” value with RAW-Dual [1] (cytotoxicity flag (confluency mask): cytotoxic (confluency <70% of control), agonist: Imiquimod (TLR7) […]) stood at 0.73; in the test with RAW-Dual [1] (cytotoxicity flag (confluency mask): cytotoxic (confluency <70% of control), agonist: MPLA (TLR4) […]), 0.891.
Turning to `CC12CCC3C(CCC4C(C)(C(=O)O)CCCC34C)(CC1=O)C2` (stereo unspecified), the “NF-kB SEAP reporter activity” value was determined as 0.95 in the test on RAW-Dual [1] (setting [4]) and 1.14 with RAW-Dual [1] (setting [5]).
Take `CC12CCC3C(CCC4C(C)(C(=O)O)CCCC34C)(CC1=O)C2` (stereo unspecified) (library stock concentration (final ~1000-fold dilution): 10 mM): the “NF-kB SEAP reporter activity” value in the test on RAW-Dual [2] (agonist: LPS (TLR4) 0.1 ug/mL) amounted to 1.41; with RAW-Dual [2] (setting [6]), 1.11; in the test with RAW-Dual [2] (setting [7]), 1.13; in the test on RAW-Dual [2] (setting [8]), 1.02.
`CC12CC(O)C3CC1(OC1OC(CO)C(O)C(O)C1O)C3(COC(=O)c1ccccc1)C(=O)O2` (stereo unspecified): the “NF-kB SEAP reporter activity” value came out at 0.925 with RAW-Dual [1] (setting [4]) and 1.04 in the test with RAW-Dual [1] (setting [5]).
As for `CC12CC(O)C3CC1(OC1OC(CO)C(O)C(O)C1O)C3(COC(=O)c1ccccc1)C(=O)O2` (stereo unspecified) (library stock concentration (final ~1000-fold dilution): 10 mM), the “NF-kB SEAP reporter activity” value is 1.33 with RAW-Dual [2] (agonist: LPS (TLR4) 0.1 ug/mL), 0.943 in the test on RAW-Dual [2] (setting [6]), 1.11 in the test with RAW-Dual [2] (setting [7]) and 1.16 with RAW-Dual [2] (setting [8]).
Regarding `CC(C)(C)c1nc(-c2cccc(NS(=O)(=O)c3c(F)cccc3F)c2F)c(-c2ccnc(N)n2)s1` (library stock concentration (final ~1000-fold dilution): 10 mM), the figures for the “NF-kB SEAP reporter activity” value with RAW-Dual [3] (agonist: LPS (TLR4) 0.1 ug/mL) and in the test with RAW-Dual [3] (setting [6]) were 3.02 and 3.35, respectively.
With `Cc1cc(Nc2cc(N)ncn2)c(=O)n2c1C(=O)NC21CCCCC1`, the “NF-kB SEAP reporter activity” value came to 1.2 in the test on RAW-Dual [1] (setting [4]) and 1.33 with RAW-Dual [1] (setting [5]).
For the compound `Cc1cc(Nc2cc(N)ncn2)c(=O)n2c1C(=O)NC21CCCCC1` (library stock concentration (final ~1000-fold dilution): 10 mM), the “NF-kB SEAP reporter activity” value in the test with RAW-Dual [2] (agonist: LPS (TLR4) 0.1 ug/mL) was 1.94; in the test on RAW-Dual [2] (setting [6]), 1.36; in the test with RAW-Dual [2] (setting [7]), 1.22; in the test on RAW-Dual [2] (setting [8]), 1.27.
